These are yes or no findings as the source states them, for the method shown. In cells and extracts the contact can be indirect. Some entries that bind do so weakly or less than the wild type.
Tests used:
CDK8-GFP (human) [1] = target: CDK8-GFP (human) (UniProt P49336); experiment: FRET or BRET; FLIM-FRET in fixed HeLa cells; donor CDK8-GFP, acceptor OGG1-Halotag (TMR) or OGG1-mCherry; non-treated cells (no oxidative stress); donor lifetime measured in the nucleus
CDK8-GFP (human) [2] = target: CDK8-GFP (human) (UniProt P49336); experiment: FRET or BRET; FLIM-FRET in fixed HeLa cells; donor CDK8-GFP, acceptor OGG1-Halotag (TMR) or OGG1-mCherry; cells treated with 40 mM KBrO3, 3 h recovery (K3), with or without CSK wash; donor lifetime measured in the nucleus
[3] = target: mediator CKM subunit CDK8 (human (endogenous in HeLa)) (UniProt P49336); experiment: co-IP; non-treated (NT) HeLa OGG1–GFP cells; benzonase-treated lysate (150 mM NaCl, 0.1% NP40); IP with antibody against SMC1, MED12 or CDK8 or control IgG on Dynabeads; OGG1 detected by western blot
[4] = target: mediator CKM subunit MED12 (human (endogenous in HeLa)) (UniProt Q93074); experiment: as above
[5] = target: mediator CKM subunit CDK8 (human (endogenous in HeLa)) (UniProt P49336); experiment: co-IP; HeLa OGG1–GFP cells treated with 40 mM KBrO3 (K3, 3 h recovery); benzonase-treated lysate (150 mM NaCl, 0.1% NP40); IP with antibody against SMC1, MED12 or CDK8 or control IgG on Dynabeads; OGG1 detected by western blot
[6] = target: mediator CKM subunit MED12 (human (endogenous in HeLa)) (UniProt Q93074); experiment: as above

By UniProt entry, the sequences of proteins in these tests, tags left out.
UniProt P49336: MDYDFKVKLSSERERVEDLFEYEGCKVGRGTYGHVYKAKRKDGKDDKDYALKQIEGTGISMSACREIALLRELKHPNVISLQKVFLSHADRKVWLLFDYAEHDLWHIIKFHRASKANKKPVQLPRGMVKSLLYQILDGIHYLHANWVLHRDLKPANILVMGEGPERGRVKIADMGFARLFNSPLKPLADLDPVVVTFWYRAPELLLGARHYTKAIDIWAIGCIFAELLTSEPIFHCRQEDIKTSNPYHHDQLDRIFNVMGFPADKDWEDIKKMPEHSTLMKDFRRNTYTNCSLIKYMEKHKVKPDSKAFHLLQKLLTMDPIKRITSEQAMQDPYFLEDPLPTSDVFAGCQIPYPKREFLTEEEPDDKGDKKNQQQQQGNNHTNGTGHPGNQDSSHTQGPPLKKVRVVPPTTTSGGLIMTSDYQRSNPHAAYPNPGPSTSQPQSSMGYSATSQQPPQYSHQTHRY
UniProt Q93074: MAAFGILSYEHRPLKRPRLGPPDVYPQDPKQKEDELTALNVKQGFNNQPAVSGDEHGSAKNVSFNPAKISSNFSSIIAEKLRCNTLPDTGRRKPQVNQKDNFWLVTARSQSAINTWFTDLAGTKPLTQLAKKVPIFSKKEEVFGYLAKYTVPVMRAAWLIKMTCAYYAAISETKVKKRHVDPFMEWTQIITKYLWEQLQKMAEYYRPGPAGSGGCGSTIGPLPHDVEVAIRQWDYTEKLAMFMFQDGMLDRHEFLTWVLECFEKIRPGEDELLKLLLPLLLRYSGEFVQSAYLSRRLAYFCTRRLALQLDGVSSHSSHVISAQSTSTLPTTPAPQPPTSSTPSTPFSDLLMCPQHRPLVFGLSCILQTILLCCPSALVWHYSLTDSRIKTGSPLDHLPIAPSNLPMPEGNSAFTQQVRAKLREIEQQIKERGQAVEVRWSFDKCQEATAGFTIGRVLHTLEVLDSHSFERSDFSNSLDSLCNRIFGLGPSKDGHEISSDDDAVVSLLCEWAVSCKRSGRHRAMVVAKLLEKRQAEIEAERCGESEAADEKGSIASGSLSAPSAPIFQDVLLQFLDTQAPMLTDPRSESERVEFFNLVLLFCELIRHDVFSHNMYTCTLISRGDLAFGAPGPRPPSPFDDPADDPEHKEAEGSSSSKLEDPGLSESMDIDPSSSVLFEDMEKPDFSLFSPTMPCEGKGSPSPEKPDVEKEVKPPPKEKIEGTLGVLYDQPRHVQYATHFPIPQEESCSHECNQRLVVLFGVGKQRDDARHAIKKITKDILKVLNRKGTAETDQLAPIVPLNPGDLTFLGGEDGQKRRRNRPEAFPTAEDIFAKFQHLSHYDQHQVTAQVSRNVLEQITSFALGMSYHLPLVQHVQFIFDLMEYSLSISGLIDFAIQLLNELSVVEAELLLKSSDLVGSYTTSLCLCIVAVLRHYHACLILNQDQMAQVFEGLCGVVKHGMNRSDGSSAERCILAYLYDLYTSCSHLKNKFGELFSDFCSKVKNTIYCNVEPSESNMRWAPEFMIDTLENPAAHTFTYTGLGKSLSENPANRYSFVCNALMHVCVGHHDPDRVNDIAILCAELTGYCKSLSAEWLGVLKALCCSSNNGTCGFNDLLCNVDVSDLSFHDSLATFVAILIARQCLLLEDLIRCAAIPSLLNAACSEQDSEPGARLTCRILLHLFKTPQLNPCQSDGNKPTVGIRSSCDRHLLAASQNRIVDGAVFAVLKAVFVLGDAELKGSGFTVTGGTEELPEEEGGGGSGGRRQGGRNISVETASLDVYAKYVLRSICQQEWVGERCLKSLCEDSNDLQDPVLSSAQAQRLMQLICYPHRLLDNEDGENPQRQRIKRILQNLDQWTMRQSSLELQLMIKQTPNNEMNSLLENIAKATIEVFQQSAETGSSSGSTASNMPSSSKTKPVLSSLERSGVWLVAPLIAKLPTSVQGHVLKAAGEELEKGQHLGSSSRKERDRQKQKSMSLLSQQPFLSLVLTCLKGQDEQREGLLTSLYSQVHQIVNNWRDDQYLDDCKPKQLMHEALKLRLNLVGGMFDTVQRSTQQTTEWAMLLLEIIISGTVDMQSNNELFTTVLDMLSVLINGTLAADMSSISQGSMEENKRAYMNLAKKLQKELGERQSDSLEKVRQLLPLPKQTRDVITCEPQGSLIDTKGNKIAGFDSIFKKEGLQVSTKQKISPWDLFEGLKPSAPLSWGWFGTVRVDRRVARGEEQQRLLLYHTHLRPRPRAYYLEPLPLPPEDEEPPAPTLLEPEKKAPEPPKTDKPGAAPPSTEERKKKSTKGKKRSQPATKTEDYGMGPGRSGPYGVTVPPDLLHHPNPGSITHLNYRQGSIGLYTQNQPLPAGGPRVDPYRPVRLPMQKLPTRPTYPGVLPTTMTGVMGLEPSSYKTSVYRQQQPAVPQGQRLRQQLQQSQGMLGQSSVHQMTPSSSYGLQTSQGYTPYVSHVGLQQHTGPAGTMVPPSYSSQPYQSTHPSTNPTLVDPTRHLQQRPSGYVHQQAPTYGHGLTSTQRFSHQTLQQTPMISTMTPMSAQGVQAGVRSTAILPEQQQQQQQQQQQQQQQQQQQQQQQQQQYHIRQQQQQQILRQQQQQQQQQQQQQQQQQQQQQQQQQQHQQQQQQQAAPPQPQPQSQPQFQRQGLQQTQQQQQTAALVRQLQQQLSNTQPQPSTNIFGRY
UniProt O15527: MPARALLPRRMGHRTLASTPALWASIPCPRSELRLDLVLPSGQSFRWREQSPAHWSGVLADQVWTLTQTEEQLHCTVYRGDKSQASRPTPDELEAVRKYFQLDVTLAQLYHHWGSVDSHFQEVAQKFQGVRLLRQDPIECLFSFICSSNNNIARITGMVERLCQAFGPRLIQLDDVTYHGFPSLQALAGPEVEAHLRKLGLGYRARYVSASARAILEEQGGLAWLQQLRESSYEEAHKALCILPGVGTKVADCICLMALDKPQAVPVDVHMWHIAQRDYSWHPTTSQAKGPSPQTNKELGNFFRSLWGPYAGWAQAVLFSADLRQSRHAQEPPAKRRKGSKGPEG

| binding (CDK8-GFP (human) [2]) | binding [5] | binding [6] | Substance | binding (CDK8-GFP (human) [1]) | binding [3] | binding [4] |
| --- | --- | --- | --- | --- | --- | --- |
| binds |  |  | OGG1-mCherry (from UniProt O15527 1-345) (enzyme) | no binding (condition: non-treated cells (without KBrO3)) |  |  |
|  | binds | binds | hOGG1 fused to GFP (8-oxoguanine DNA glycosylase 1) (from UniProt O15527 1-345) (enzyme) |  | no binding (condition: non-treated cells (without KBrO3)) | no binding (condition: non-treated cells (without KBrO3)) |

From paper PMC7498353
